# Experimental data from PubChem BioAssay AID463173 (ICCB-Longwood Screening Facility, Harvard Medical School, 2010).
# The campaign covered roughly 52,000 compounds. About 1,700 (3.3%) were called active. No stated cut-off is given here; in the data, active means survival mostly below about 52% (no sharp cut-off); inactive means mostly above about 56%. Some of the results follow.
# Tested on: Wild type
# Experiment: S. aureus survival, RN4220 and DeltatarO strains – OD600, teichoic acid synthesis inhibitors, primary screen (AID 463173)
# Conditions: S. aureus RN4220 wild type/DeltatarO growth, OD600, 18 h, active compounds read low, screened at 18.75 µg/mL (by protocol)
row,SMILES,survival
1,COc1ccc(Br)cc1CNC(=O)C1CCN(c2nnc(-n3cccc3CNc3ccc(C)cc3)s2)CC1,inactive: 79%
2,COc1cc2c(C(=O)N3CCN(c4ccc(F)cc4)CC3)cn(CC(C)C)c(=O)c2cc1OC,inactive: 72%
3,CCN1/C(=C2/SC(=S)N(N)C2=O)Sc2ccccc21,inactive: 103%
4,CCOc1ccccc1NC(=O)C1CCCN(S(=O)(=O)c2cccs2)C1 (configuration not stated),inactive: 94%
5,CCCCOc1ccccc1NC(=O)CC1Sc2ccccc2NC1=O (configuration not stated),inactive: 144%
6,COc1ccccc1Cc1nc2ccccc2nc1SCC(=O)N1CCCCC1,inactive: 73%
7,COc1ccccc1CN1CCC(C(=O)NCc2ccc(C)cc2)CC1,inactive: 106%
8,COc1ccc(NC(=O)c2sc3nc4n(c(=O)c3c2C)CCC4)c(OC)c1,inactive: 96%
9,CCOC(=O)N1CCN(c2ncc3c(n2)CC(c2ccc(OC)c(OC)c2)CC3=O)CC1 (configuration not stated),inactive: 77%
10,COc1ccc(CCNC(=O)CCc2c(C)nc3cc(-c4ccc(Cl)cc4)nn3c2C)c(OC)c1,inactive: 143%
11,Cc1noc(/C=C/c2ccccc2F)c1S(=O)(=O)N1CCC(C(=O)NCc2ccco2)CC1,inactive: 136%
12,CCOC(=O)c1ccccc1NC(=O)N1CCCn2nc(C)cc21,inactive: 68%
13,O=C(/C=C(/O)c1cccnc1)C(F)(F)F,inactive: 86%
14,COc1ccc(C(=O)Nc2cccc(OCc3cc(=O)n4c5c(sc4n3)CCCC5)c2)cc1OC,inactive: 64%
15,Cc1cc(C)cc(N2C(=O)CSC23C(=O)N(CC(=O)NC2CCCCC2)c2ccccc23)c1 (configuration not stated),inactive: 115%
16,CCc1ccc(NC(=O)Cn2c(=O)n(Cc3ccc(C)cc3)c(=O)c3cccnc32)cc1,inactive: 93%
17,CC(=O)N1CCCc2cc(S(=O)(=O)N3CCC(C(=O)N(C)C4CCCCC4)CC3)ccc21,inactive: 81%
18,Cc1ccccc1C(=O)Nc1nnc(S(=O)(=O)N2CCc3ccccc32)s1,inactive: 94%
19,O=C(/C=N/O)Nc1cccnc1,inactive: 86%

row,SMILES,survival
1,CN(c1ccc(C(=O)N2CCCCC2)cc1)S(C)(=O)=O,inactive: 89%
2,O=C(CCS(=O)(=O)c1cc(Br)cc2c1N(C(=O)C1CC1)CC2)N1CCN(c2ccccc2)CC1,inactive: 87%
3,COc1ccc(OC)c(CCNC(=O)c2cnn(-c3ccccc3)c2-n2cccc2)c1,inactive: 72%
4,CNC(=O)C1CCN(C(=O)N2CC(C)Oc3ccc(Cl)cc32)CC1 (configuration not stated),inactive: 84%
5,Cc1nnc2c3ccccc3nc(N3CCN(c4ccccc4)CC3)n12,inactive: 91%
6,CCOC(=O)C1CCCN(C(=O)c2ccccc2NC(=O)c2nsc3ccccc23)C1 (configuration not stated),inactive: 134%
7,CCOc1ccc(C2CC(=O)c3c([nH]c(C(=O)OCCOc4ccccc4)c3C)C2)cc1 (configuration not stated),inactive: 85%
8,CN(C)N1C(=O)CC(N2CCCC2)C1=O (configuration not stated),inactive: 101%
9,O=C(c1ccc2c(c1)N(Cc1cccc(Cl)c1)C(=O)c1ccccc1S2(=O)=O)N1CCCC1,inactive: 82%
10,Cc1ccccc1Cn1nnc2c(=O)[nH]c(C3CCCN(C(=O)c4ccc(C(C)(C)C)cc4)C3)nc21 (configuration not stated),inactive: 16%
11,N#Cc1c(-c2ccccc2)cc(-c2ccccc2)nc1SCC(O)CS(=O)(=O)Cc1ccccc1 (configuration not stated),inactive: 81%
12,O=C(Cn1cc(SCc2ccc(F)cc2)c2ccccc21)N1CCCCCC1,inactive: 82%
13,O=C(CCc1ccccc1)N(Cc1cccnc1)c1nc2ccc(F)cc2s1,inactive: 71%
14,CCOCCCNC(=O)C1CCCN(c2ncnc3onc(C)c23)C1 (configuration not stated),inactive: 54%
15,CCOc1ccc(NC(=O)c2cnn(-c3ccccc3)c2-n2cccc2)cc1,inactive: 61%
16,CCN(CC)C(=O)CSc1nc2c(c(=O)n(C)c(=O)n2C)n1Cc1ccccc1,inactive: 75%
17,O=C(CN1CCOCC1)NN=C1CCCCC1,inactive: 93%
18,Cc1ccccc1C(=O)Nc1cccc(OCc2cc(=O)n3c4c(sc3n2)CCCC4)c1,inactive: 126%
19,COc1ccc2c(c1)c1c(c(=O)n(-c3ccc(C)cc3)c(=O)n1CC(=O)c1ccc(Cl)cc1)n2C,inactive: 68%

row,SMILES,survival
1,COc1ccc(NC(=O)Cn2cc(S(=O)(=O)N3CCC(C)CC3)c3ccccc3c2=O)cc1Cl,inactive: 78%
2,CN(C)C(=O)CSc1n[nH]c(-c2ccccc2)n1,inactive: 120%
3,Cc1ccc(C)c(CNS(=O)(=O)c2ccc3c(c2)C(C)(C)C(=O)N3C)c1,inactive: 69%
4,CC1CCN(S(=O)(=O)c2ccc3c(c2)N(CC(=O)NCCN(C)C)C(=O)CO3)CC1,inactive: 76%
5,COc1ccc2c(CNCCc3ccccc3C)c(C(=O)O)n(Cc3ccccc3C)c2c1,inactive: 92%
6,COc1cccc(CNS(=O)(=O)c2ccc3[nH]c4c(c3c2)CCCCC4)c1,inactive: 82%
7,Cc1ccc(C)c(N2CCN(C(=O)c3ccc(-c4nc(COc5ccccc5)c(C)o4)cc3)CC2)c1,inactive: 117%
8,CCOc1ccc(NC(=O)c2ccc3[nH]c(C)cc(=O)c3c2)cc1,inactive: 87%
9,CC(=O)N1CCc2c(sc3c2c(=O)n(-c2cccc(Cl)c2C)c(=O)n3Cc2ccccc2C)C1,inactive: 79%
10,CCOC(=O)/C(C#N)=C\c1ccc(-c2cccc(C(F)(F)F)c2)o1,inactive: 86%
11,O=C(CCCCn1c(=O)[nH]c2ccsc2c1=O)N1CCN(c2cccc(C(F)(F)F)c2)CC1,inactive: 57%
12,Cc1ccc2c(c1)cc1c(=O)n(CC(=O)N(C)c3ccccc3)nc(C)n12,inactive: 115%
13,COc1ccc(CN(Cc2ccco2)C(=O)COc2ccc(Cl)cc2C)cc1,inactive: 83%
14,CCOC(=O)c1c(S(=O)(=O)N2CCCC(C(=O)NCc3ccc(F)cc3)C2)c(C)n(CC)c1C (configuration not stated),inactive: 93%
15,COc1cccc(-c2nnc(SCC(=O)N3CCCCC3)o2)c1,inactive: 111%
16,COC(=O)C1C2C=CC3(CN(Cc4ccco4)C(=O)C13)O2 (configuration not stated),inactive: 102%
17,O=C(OCc1cc(=O)n2nc(-c3cccs3)sc2n1)c1cccc(Cl)c1,inactive: 53%
18,COc1ccc(CNC(=O)C2CCCN(S(=O)(=O)N(C)c3ccc(F)cc3)C2)cc1OC (configuration not stated),inactive: 86%
19,O=C(NC1CCCCC1)NC1CCN(Cc2nnnn2Cc2ccc(F)cc2)CC1,inactive: 118%
